Reference: the RNAGym collection of RNA variant scans (doi:10.7554/elife.90254)
Read counts are not given, so values of variants with three or more changes are uncertain.

B1: OR4K15 (parent)
chain: GUUAACGGUCAUAGGCCAUGGAAACUAGGAGCACCAUUUCGCUGCCAGUGAAGAAAUGAACAAAGAAAAUCUGGGCCAGGCAGGCAUCAAAAGAAAUAGUCUUGCGCUCAACCAGAAAGUCUGUAAUCAUUUUAAGGGUA

Variants of: B1
Assay: self-cleavage, relative activity (ratio to wild type); higher = more cleavage; in vitro, sequencing; the parent is a self-cleaving ribozyme
A24G A62G U103C A110G A117G A126C showed a self-cleavage of 0.08. In the case of G8A A78G A91G U97C, the self-cleavage is reported as 0.12. In the case of U19C A94G A111G, the self-cleavage is reported as 0.03. With A11G A68G U102C U103C U124C U127C the self-cleavage was 0.05. Variant A56G A59G A118C has a self-cleavage of 1.02. With A22G U26C A52G U108A U130C the self-cleavage was 0.04. For A56G A62U A68G A116U, the self-cleavage was 0.11. Work on A82U G104C C121U U122A G123C U132C yielded a self-cleavage of 0.15. A59U A68G A92G showed a self-cleavage of 0.34. For G7A A56G U57A U103C A126G, the self-cleavage was 0.32. Work on A23G A52G A68G G115A yielded a self-cleavage of 0.12. In the case of A11U U12A A94U, the self-cleavage is reported as 0.76. For A110G A117C A134G, the self-cleavage was 0.06. Work on A27G C32A U38C G79A yielded a self-cleavage of 0. Work on U43C A89G A98G yielded a self-cleavage of 0.42. Work on A24C A68G A86G yielded a self-cleavage of 1.4. A51G A63G U103C G136U showed a self-cleavage of 0.57. In the case of A24G A30G A82U A94G U108C, the self-cleavage is reported as 0.01. Work on C35A U49C C105U yielded a self-cleavage of 0.08. U37C U108C A126G showed a self-cleavage of 0. Variant G28U U103C A118G U120C has a self-cleavage of 0.23. U2C A89U U139A gave a self-cleavage of 0.4. U9C A24G A94G A114U A116G showed a self-cleavage of 0. For A59G A62U G106A A114G A140G, the self-cleavage was 0. U39C A64G A111G A117G gave a self-cleavage of 0.02. In the case of A33G A62G A63G, the self-cleavage is reported as 0.3. C46U A62G A89G U127C showed a self-cleavage of 1.33. U3C A18G U131C A135G showed a self-cleavage of 0.61. A23G U43A U70C U132C showed a self-cleavage of 0.97. Variant G79U U103C U130C has a self-cleavage of 0.03. In the case of U2C U9C A96G, the self-cleavage is reported as 1.46. U43C A69G U103C gave a self-cleavage of 0.9. A23G A30G C42U A78U A86G U103C C121U gave a self-cleavage of 0.08. A5G A51U A94G gave a self-cleavage of 1.31. In the case of A23G A24G A118G A126G U131C, the self-cleavage is reported as 0.32. A27U A36G U43C U49C A111G gave a self-cleavage of 0.02. For C45A A66G A98U, the self-cleavage was 2.25. Work on A64G C85U A111G yielded a self-cleavage of 0.03. Variant A56G A67G U124C has a self-cleavage of 1.2. In the case of U49C U70A A78U U122C, the self-cleavage is reported as 0.04. A11U A94G U103C A117G A118G U131C gave a self-cleavage of 0.61. With A52C U87C A98U A118G the self-cleavage was 1.15. For A18G U19C U57C A90G, the self-cleavage was 0.24. Work on A63G G80C A91U A118G yielded a self-cleavage of 0.15. In the case of U43G A63G U120C, the self-cleavage is reported as 1.23. U9C G106A A111G gave a self-cleavage of 0.01. A11G U87C U100A showed a self-cleavage of 0.86. Variant G1A A126U U131C has a self-cleavage of 2.21. Variant U2C A67U A94G has a self-cleavage of 1.71. Variant A18G U103C U122C has a self-cleavage of 0.23. For A47G A114U C121U A134G, the self-cleavage was 0.05. A54G U70C G80U A96G A140G showed a self-cleavage of 0.13. With A23G U57C A96G the self-cleavage was 0.84. Variant A60G U70C U122A has a self-cleavage of 0.58. U9C A23G G41A A66G showed a self-cleavage of 1.23. Variant U49A U108C U132C has a self-cleavage of 0.01. A36U C46A A63G A66G gave a self-cleavage of 1.42. Variant U2C A11C U49G has a self-cleavage of 1.37. Variant A52G A62G G79A has a self-cleavage of 0.18. In the case of G15C U19C U37C A64G A96G A135C, the self-cleavage is reported as 0.7. G31U U37C A64G A140G gave a self-cleavage of 2.51. Work on A52G A66G A68G yielded a self-cleavage of 1.2. In the case of A30G A51G A98G A117G, the self-cleavage is reported as 0.62. In the case of A5G U43C C46U U49G A64G A116G, the self-cleavage is reported as 0.53. Work on A36U A59G U100C yielded a self-cleavage of 2.13. Variant U70C A86U A111G has a self-cleavage of 0.02. U39C A51G A63U G123A gave a self-cleavage of 1.51. In the case of A23U A62G A90G, the self-cleavage is reported as 1. Work on A13U A18G A47G A56G U100C yielded a self-cleavage of 2.21. A82U A117G A126U gave a self-cleavage of 0.13. A47G A62U A126G gave a self-cleavage of 0.46. With A24U A54G A92G the self-cleavage was 1.06. Work on A18G A23G A98G C128A yielded a self-cleavage of 0.3. With G31U A69G U102A the self-cleavage was 0.58. Variant A59U A60G A67G A96G has a self-cleavage of 1.5. For A47C A78G A95G U133C, the self-cleavage was 0.22. Variant U39A A118G U127A has a self-cleavage of 1.32. U37C A69G A94G gave a self-cleavage of 1.58. With U9C A22U C88U U97C U103C A110U U130C the self-cleavage was 0.23. A63G U102A A140U gave a self-cleavage of 0.59. Variant C42U U43C U87C U122A has a self-cleavage of 0.85. A54G A118C A126G showed a self-cleavage of 0.53. Work on A33G A56G A59G A60G U102A U120C yielded a self-cleavage of 0.22.
